# Laboratory results taken from the RNAGym collection of RNA variant scans (doi:10.7554/elife.90254).
# The source gives no read counts; variants with many changes may rest on few reads.
# B1: OR4K15 (parent)
# chain: GUUAACGGUCAUAGGCCAUGGAAACUAGGAGCACCAUUUCGCUGCCAGUGAAGAAAUGAACAAAGAAAAUCUGGGCCAGGCAGGCAUCAAAAGAAAUAGUCUUGCGCUCAACCAGAAAGUCUGUAAUCAUUUUAAGGGUA
# Variants of: B1
# Test: self-cleavage, relative activity (ratio to wild type); higher = more cleavage; in vitro, sequencing; the parent is a self-cleaving ribozyme
row,Variant,self-cleavage
1,A11G A67G A86U,0.82
2,A11G A67G A111G,0.03
3,A11G A67G U102A,0.91
4,A11G A68G A96G A118G U132C A135G,0.76
5,A11G A68U A82G A95G,0.84
6,A11G A69G A90G A91G C112U,0.02
7,A11G A69G U100C A125G U130C,0.95
8,A11G A78U A111C A125U,0.04
9,A11G A82G A129U,0.59
10,A11G A90G A92U U130C,0.46
11,A11G A91G U100C,0.9
12,A11G A92G U130C,0.53
13,A11G A95G A114U,0.11
14,A11G A96G A114G U132C,0.32
15,A11G A96G U108C,0.05
16,A11G A96U A117G,2.49
17,A11G A96U U108C A116G,0.01
18,A11G A96U U120C,0.97
19,A11G A98U A111G U132C,0.04
20,A11G A110G U132C A134C A135G,0.07
21,A11G A116G U120C,0.1
22,A11G A125G A126G,0.37
23,A11G C17U A134G,1.32
24,A11G C34G U38C,1.32

row,Variant,self-cleavage
1,A11G C35U C46U A78G,0.24
2,A11G C35U G79U A117G,0.09
3,A11G C40G A95G C109U,0.51
4,A11G C40U A47G U127C U132C,0.33
5,A11G C42U U43C A47G G83A,0.93
6,A11G C46A U100C U131C A135G,0.96
7,A11G C77U A86C U100C,0.76
8,A11G G15A A36U A59G,0.71
9,A11G G21A A66G A78U A89G U122A U132C,0.22
10,A11G G29C A60G A111U,0.1
11,A11G G79A A89U U108C,0.04
12,A11G U12A U26A A59G A92U,1.11
13,A11G U12A U39C,1
14,A11G U12C G21U A23U U122C,1.2
15,A11G U12C U19C,0.81
16,A11G U12C U70C U87A,0.2
17,A11G U19A G79U U87C,0.1
18,A11G U19C A23G A94G A117G,2.05
19,A11G U19C A66G A126U,0.38
20,A11G U19C A66U A92G A134G,0.46
21,A11G U19C A78U,0.41
22,A11G U19C G84A,1.13
23,A11G U19C U26C A55G U103C A116U,0.2
24,A11G U19C U43C A78G A135U,0.22

row,Variant,self-cleavage
1,A11G U19C U108C,0
2,A11G U19G C42U U127C,0.38
3,A11G U19G G31A U130C,1.02
4,A11G U26A A56G A92U,1.01
5,A11G U26C U38C U130C,0.46
6,A11G U26G A95G A117G,0.98
7,A11G U37C A51G A90U,1.53
8,A11G U37C A51U,1.78
9,A11G U37C A92U,0.73
10,A11G U37C G53U U102C A111U,0.01
11,A11G U37C U43A U49G U70C A96G U108A A135G,0.01
12,A11G U37C U102A U139C,0.68
13,A11G U38C A52G U57C A68G U131A,0.98
14,A11G U38C A96G,1.68
15,A11G U38C U132C,1.32
16,A11G U38G A95G U122C,0.72
17,A11G U39C A56G A66G U108C,0.04
18,A11G U39C A59G A91G,0.62
19,A11G U39C A82U A135G,0.04
20,A11G U43A A54U A91G U108C A116G,0.07
21,A11G U43A A110G,0.05
22,A11G U43A A125U A140G,2.28
23,A11G U43C A92U,1.6
24,A11G U43C U103C A117G U130C,0.64

row,Variant,self-cleavage
1,A11G U43G U70A U72A,0.25
2,A11G U49C A55G U97A U120C,0.85
3,A11G U49C U122A,0.37
4,A11G U70C A90U,1.1
5,A11G U70C A98G,0.36
6,A11G U70C U87A U133C,0.96
7,A11G U70C U87C A114U,0.03
8,A11G U72A A95G A114U,1.2
9,A11G U72A A114G A125G,0.05
10,A11G U97C A110G U131C,0.03
11,A11G U97C A111G U131C,0.03
12,A11G U100C A116G A117U,1.13
13,A11G U102C A114U U130C,0.03
14,A11G U102C U132C U133G,1.45
15,A11G U103C U130A,0.08
16,A11G U108C A111U A126G U133C,0
17,A11G U122C A129G,0.4
18,A11G U127C A129U,0.9
19,A11U A18G A24G A64G U100C,1.5
20,A11U A18U A30G A51G A78U,0.67
21,A11U A18U U19A A24G U43C,0.83
22,A11U A22C A27G A94G A118G,1.34
23,A11U A22G A82U U87A U130C,0.06
24,A11U A22U A33U A52G U70C G106U,0.05

row,Variant,self-cleavage
1,A11U A23G A66G U72C U102C,0.25
2,A11U A23G C34U A56U A59G A90G U103A U120C,0.06
3,A11U A30U A47U U57A U108C,0.03
4,A11U A33G A51G U70A,0.18
5,A11U A33G A59G A60G A116G,0.1
6,A11U A51G A64U,1.49
7,A11U A51G A111C,0.04
8,A11U A52G A82G,0.38
9,A11U A52G U87C,1.31
10,A11U A54G A86G A89C,0.48
11,A11U A54U A129G,0.67
12,A11U A55G A90G,0.21
13,A11U A56G A91U,0.89
14,A11U A62G A63U,1.36
15,A11U A62G U72C,0.29
16,A11U A64G U100C,1.6
17,A11U A66G A68U U120C U122C,1.78
18,A11U A66G A116G U124C,0.32
19,A11U A67G U102C U103C,0.31
20,A11U A68G A82G A94G,0.6
21,A11U A69G U72A,0.47
22,A11U A91G U102A,0.42
23,A11U A92U A116U,0
24,A11U A94G A96G U124C,0.61

row,Variant,self-cleavage
1,A11U A95G U97C,0.34
2,A11U A95G U131C,1.67
3,A11U C17U U57C A94G,0.7
4,A11U C25A A55G A60U U72C U120C U122C A140G,0.12
5,A11U C40A U43C U130C,0.24
6,A11U C61U U103C,1.34
7,A11U C107U A116G U120C,0.01
8,A11U G28A A51G A94G A118G,0.84
9,A11U G41U G84C,0.4
10,A11U G53U U87C,0.27
11,A11U U12A A68U U100C U139C,1.79
12,A11U U12C A23U G106A,0.02
13,A11U U19A A51U U87C,1.36
14,A11U U19A C42A A54G A111G,0.03
15,A11U U19C A24G A68G A89G A92G G93A,0.53
16,A11U U19C A63G A89G,1.8
17,A11U U26C U120C,1.2
18,A11U U37C U39C U133A,1.8
19,A11U U38A A86U A90G U122A,0.97
20,A11U U38C A59U A129G,0.85
21,A11U U38C G75C U102C,0.11
22,A11U U39A A60G A96G U108C,0.05
23,A11U U72C A96G,0.11
24,A11U U100C U130C,0.98

row,Variant,self-cleavage
1,U12A A22U A36U,1.74
2,U12A A23G A52G U103A,0.44
3,U12A A23G U49C,1.1
4,U12A A24C A118G U132C,0.04
5,U12A A24U A96G,1.61
6,U12A A27C A56G A86G U120C,0.65
7,U12A A30U A36U,1.42
8,U12A A33C A59G A82U A111G,0.06
9,U12A A47U A63G,1.07
10,U12A A47U A91G A117G,0.42
11,U12A A52G A118G,0.56
12,U12A A56C A89G,0.64
13,U12A A56G A69U,0.73
14,U12A A60G A63U A117G,1.48
15,U12A A60G U97A U122C A135G,0.45
16,U12A A62G U97C,1.47
17,U12A A64G A129G,1.23
18,U12A A67G U70C G74U,0.3
19,U12A A69G A89G C105U A134G,0.07
20,U12A A82U U103C A118G,0.03
21,U12A A90G A95G A110G A118U,0.1
22,U12A A94G A110G A140G,0.1
23,U12A A94U A116G A134G,0.42
